According to the supplement of paper PMC3334620:
Whole data set: some 33,000 sequences, median “E-score (-0.5 to 0.5)” near -0.017, cut for the highest 2% near 0.3. Some of the results follow.

The sequences below were run against T1, Sut1 (UniProt P53032) (assay: PBM E-score (8-mer binding enrichment) (E-score (-0.5 to 0.5)); higher = stronger / more preferred TF binding; most listed sequences are background and not binding sites). Settings: protein concentration: 200 nM; construct: GST-full length.
T1 sequence: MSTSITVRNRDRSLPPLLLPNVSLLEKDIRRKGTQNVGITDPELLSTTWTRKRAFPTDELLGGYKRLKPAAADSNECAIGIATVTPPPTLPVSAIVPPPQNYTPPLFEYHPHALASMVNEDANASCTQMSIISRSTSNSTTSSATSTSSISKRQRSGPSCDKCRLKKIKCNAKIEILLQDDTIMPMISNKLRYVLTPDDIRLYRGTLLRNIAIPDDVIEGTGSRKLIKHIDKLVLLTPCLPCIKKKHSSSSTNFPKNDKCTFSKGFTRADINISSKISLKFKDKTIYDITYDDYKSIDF
Experimental: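 Universal 'all 10-mer' protein binding microarrays (Agilent AMADID 015681) probed with GST-tagged S. cerevisiae TFs (full-length or DBD) made by in vitro transcription/translation (PURExpress), about 100-200 nM. Bound TF was detected with fluorescent anti-GST. Each ungapped 8-mer (which stands for itself and its reverse complement) is scored by the PBM enrichment score (E-score), a modified Wilcoxon-Mann-Whitney statistic from -0.5 to +0.5, computed with the Universal PBM Analysis Suite. Scale: above 0.35 generally sequence-specific binding.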

Sequence	PBM E-score
CCCGCCGA	-0.0462
ACATTAAG	0.239
ACCGGTTA	0.0761
CATAACCC	-0.0293
AGAAACAA	0.185
GAATTGTA	0.128
CTTGCAAA	0.123
CAGATGCA	-0.275
AACCACGA	-0.0755
GCTTCGGA	0.324
CTGCAGAA	-0.0376
CCGTTCGA	0.0217
CGCGGCTC	0.0309
CAAGTTCA	0.0723
GATTATGA	0.164
CCTTAAAG	0.127
CCGTGGCG	-0.103
ATACAGAA	0.198
CATGGCGG	-0.183
CATTTAGG	-0.00704
AGCTGGTG	0.054
ACGCCGTA	0.0127
CCAAATAC	-0.0892
ACAACACT	0.2
CTTGCAGA	-0.222

Sequence	PBM E-score
CTCGGAAA	0.19
GGATGTTA	-0.00768
GTCGCGGA	0.206
CAAGCATA	-0.0649
CTATAATA	0.181
AGGGGTAT	-0.217
GCATAGGC	-0.284
CACATCCA	-0.084
AACATAGC	0.0491
ACTAAATA	0.262
CCAGCGGA	-0.127
CGATAGCG	0.0961
ACGCATGC	0.0987
CCCTCTTA	0.0206
CAACGTAC	-0.102
AAGGCTTG	-0.154
GTTATCTA	0.147
CGACATCG	-0.0698
ACAGCCCT	-0.198
CTCTCACC	-0.175
GACCAGCA	-0.137
AACACCGT	-0.093
AGGGTTCG	-0.00263
TCCTTGAA	-0.0478
CCAGGTCC	-0.0512

Sequence	PBM E-score
ACGGATAT	0.202
TATTGACA	0.028
AGCGCGAA	0.0509
CTGCGGAA	-0.0948
GATATTCA	-0.00148
GCCCCCCC	-0.421
AATTAGCT	0.0894
CGTGTACA	0.0551
CACTTTAA	0.157
ATACCACG	0.123
AGATTCGC	0.00777
ATGGCGTG	-0.0421
CTAATTTA	0.175
CCTAGACG	-0.136
CACTGCAG	-0.0874
GAAAGCGC	-0.0413
GAACCTTC	0.0137
ACCAAAGT	0.0979
ACAGCTGG	-0.182
TTCCTCAA	0.0392
AACCAGTG	0.0203
CGAAGCAG	-0.0992
GTAAAAGA	0.0474
TGGTGGAA	-0.0809
AGGAGCCA	-0.183

Sequence	PBM E-score
AACACTCA	0.0329
ACAGGCCG	-0.0708
GAGTACTC	0.107
GCAGTGTA	-0.179
AGTCTCCG	0.316
GAAAAATA	0.306
AAGGACAT	-0.0931
GCTGCCAC	-0.123
AGATACTC	0.0915
ACTGACGA	-0.171
TAAGTTAA	0.263
ACATCGCG	-0.146
CCTGCCGC	-0.199
TCGGTAAA	0.201
GATTGTGC	-0.0611
ACCAGCTC	0.0669
CGTCAACG	0.0766
CCTGGATA	-0.26
AAAATCCT	0.0861
ATGCCCGG	-0.0535
ACCTTTTA	0.0771
ATCCTTTG	0.0101
CCGCCGCG	0.109
CACTTTTC	0.138
GTATGCAC	-0.186

Sequence	PBM E-score
GATCGGCC	-0.178
AAGCAGAT	0.0364
CGTGTCTC	-0.24
ACGATACC	0.117
ATGTCACC	-0.0134
CGTACACA	-0.035
TGCGATAA	0.208
ACTAGGCG	0.027
CGAATCGA	0.173
TGCAAACA	-0.246
ATCCCGCG	0.132
CGTTGCTC	-0.0752
GTTGTAGA	-0.0458
CGAAAAGA	0.108
ATGTAGAA	0.117
CACAGTTA	0.0177
CAATCAAG	0.0191
AAATCGCC	0.0933
ATGAGTTG	0.0311
CTCGTGGA	-0.0276
GAGCGTGA	-0.129
ATAAGGCA	-0.0336
CGTACGCC	-0.116
GGGAGCTA	-0.176
GAATGTCC	0.282

Sequence	PBM E-score
TAGCTGGA	-0.235
AACTTTAA	0.325
ATGAAGAC	0.0692
AAGGATCA	0.0104
AAAAATTA	0.228
CTGTCACA	-0.0715
GAAAGCCA	0.0743
ATGCGTGC	-0.232
AATGTCCG	0.447
AGACTGGA	-0.0401
CACATGTG	-0.27
CATCAACA	0.0927
TGAGCTCA	0.0688
CCTGGCTA	-0.239
CAGGAGTC	0.0824
CACAAGGC	-0.171
AGTTACTG	-0.0347
CCCTCAGG	-0.22
ACTGAAAT	0.0923
ATGATGTC	0.167
AGAAATGG	-0.012
CGATCCGC	-0.128
ACTCGGGA	-0.0951
AGTATTAC	0.236
AACGTGGC	-0.115

Sequence	PBM E-score
CACAGAGA	-0.0672
AAGCCCAA	-0.0948
CAACCGGA	0.338
CAATCTAG	-0.0129
CCTTCCTC	-0.166
CACTAACG	-0.17
CGGTAAAA	0.225
GACCTGCC	-0.308
GAATATTC	0.232
GCGTGACC	-0.22
ACCCAGTG	-0.262
AAGGAAAC	0.0287
GAATCCAA	0.133
GACGGGAC	-0.26
ACACACTA	0.0857
ATCCAACG	-0.145
AATGCATT	0.219
CAGGTTAC	0.0828
AACCATGA	0.112
CGGAGAGA	0.317
AGGCGAAA	-0.133
TAGCGATA	-0.0115
CAGGATGG	-0.222
GGGCGAAC	-0.118
CGGGCGAA	0.00055

Sequence	PBM E-score
GTCGGTTA	0.0871
ACATTGGC	-0.21
CATCTTCC	0.169
ACCGTCGT	-0.0529
CACCGGAC	0.409
CTATTTCA	0.179
CTGGGCTA	-0.198
AAATCATA	0.151
AGCGACGG	-0.00842
ACGAGCAG	-0.214
CGCCAGGA	-0.196
AAGCGAAC	0.0859
ATACGACC	-0.122
CGCGCTCA	-0.0778
GAATTGCC	-0.145
ATATTCCC	0.116
ATCAACTA	0.215
GCAAAGGA	0.0236
ACATACCC	0.05
CAAGAGGA	-0.0659
AAAGCAGA	0.0353
GACCAACC	-0.0931
CGCCAGCG	-0.0723
AAGGTTTA	0.094
ACATGATC	0.116

Sequence	PBM E-score
TTGTGAAA	0.137
CACCCTGC	-0.0761
ACGGAAGC	0.101
TACCTCAA	0.0794
GCATTCCC	-0.228
ATCTTCTA	0.00445
AAGGGTCA	0.00277
GATTTGGA	0.167
CATAAATC	0.0931
GAGTAACA	0.181
CCGGGAAA	0.149
AAAGCATG	-0.0268
ATTATGCA	0.0357
GGGAGGGA	-0.103
GCTCTCCC	-0.231
AAAATATT	0.206
ATGTCCGA	0.45
AATGGGGC	-0.243
AGTGGACC	-0.278
CAGGGATG	-0.12
CTGTAACC	0.112
CATTAAAC	0.0995
CGATTTAA	0.242
GGATTTGA	-0.0473
CGTCCCCA	-0.14

Sequence	PBM E-score
CCGCTATC	0.0553
AATACGCC	0.0185
AAAGCACT	0.121
CTCTGCAC	-0.252
GGGAATAA	0.233
ATAAAAAG	0.241
AAAGCGAC	0.0737
CCTATACA	-0.0542
ACGGGGGA	-0.0258
ACGACCCG	-0.214
CCATCGCC	-0.197
CACGGTGC	-0.235
CATTATCG	0.072
ATCGGTCA	-0.031
ACAAGGAT	-0.0117
GAATAATA	0.222
GACGGTTA	-0.0273
CTGGTGAA	-0.109
ACGGAACC	0.163
CTACGTAC	-0.0782
ACAGATAC	0.071
ATACACAT	0.209
GTACAGCA	-0.136
AATTCGGT	0.255
ACCTTAAA	0.198

Sequence	PBM E-score
AGCCTAGG	-0.1
AGGTTTTC	0.0964
GGTATCAC	-0.189
GGCATCAC	-0.214
ACGATTGC	0.0877
ACTTAATC	0.145
GTCACCTA	-0.211
GTCAGTCA	0.00573
CTGTATAC	-0.00897
GCGCTGAC	-0.206
CTGCACCC	-0.254
CTATTTTC	0.205
CGAGGAAA	0.12
ATGACGGC	-0.175
CATCCCAG	-0.209
CGCAGACA	0.0588
CATAGTGA	-0.0558
ATGGTCAA	0.0291
ATATTCCA	0.177
CATATACA	0.17
GGATGCCC	-0.313
ACCGAGCT	-0.044
CTAGGTAC	-0.0605
TCGTTGAA	0.106
ATAACTCC	0.365

Sequence	PBM E-score
AAATCCTC	-0.108
CGCTAAAG	-0.0253
AAAAGTCA	0.15
AAGGTACA	-0.127
CAAAGAGA	0.0454
ACTTGTGC	-0.024
CAGCAGAG	-0.286
AAGCGTCC	-0.207
AGATATGC	-0.0536
GCTGGCCC	-0.376
CTTTACAC	0.0931
AGTTCTGG	0.0458
CAATCATC	-0.136
GCGAGACA	-0.25
GATTCGCA	0.113
ACCATGCA	-0.0585
CAATCATG	-0.00503
AAGCCCAC	-0.185
CTTCGCCA	-0.115
ACCGCCAT	-0.158
CAAAATCG	-0.0384
GATTACCC	-0.0142
GATAGGCC	-0.176
ACGTCCCG	-0.157
CCTAAGGC	-0.242

Sequence	PBM E-score
GACCCGAA	0.0553
AGACTTGC	-0.0197
CGGATCCC	-0.0536
ACGCGTCC	-0.228
AGCATTTA	0.0213
CTGGCAGC	-0.153
CTGGCCGA	-0.022
ACAATGGC	-0.0383
GTACTGAA	0.159
CGAGATCC	-0.0129
ACAAGCTG	-0.17
AGGAGGTG	-0.247
ATCGAGAA	0.0284
GCGTAGCC	-0.337
CATGGTCA	-0.065
CACCTAAA	-0.0555
AAGCAGTA	0.0176
CAAGCGCG	-0.142
GGCTAATA	0.17
AGAAAGGG	0.108
CGCTTTGC	0.0427
GTCTTCTA	0.174
CTAATTCC	0.165
AGTCACGG	0.0701
AGGCGCAT	-0.153

Sequence	PBM E-score
CACACGCC	-0.0411
ATTGTGAC	0.0474
GTCAAGAA	0.108
ATTTAAAA	0.285
GGGACCTA	0.0551
AGAGTCTA	-0.0972
CGCACACG	-0.126
CCCAAGTA	-0.257
CCCGGCAC	-0.273
AATCAAGG	0.113
CTAGCAGA	-0.0508
CTGAGGGA	-0.297
GCAGTTTA	-0.207
GTACGCAA	0.029
AGGTGTTG	0.0734
TAGAAGCA	-0.0194
GGAGTGAA	0.157
GTGTCGGA	0.292
TCATTCAA	0.199
